# In all, about 410,000 compounds went through this assay and about 6,400 (1.6%) were called active. The inconclusive results got no clear call from the source; some entries with a clear call stand among them for comparison. Calls follow the shape of the dose curve; as a rule, active = well fitted inhibition curve with a large enough effect; inconclusive = small, poorly fitted or top-dose-only effect; inactive = no such curve, though single readings can be large or run the other way. Potencies of inconclusive entries are left out as doubtful fits.
# Target: Glucagon-like peptide 1 receptor (Homo sapiens) (UniProt P43220)
# UniProt P43220, sequence (P43220 whole entry, looked up): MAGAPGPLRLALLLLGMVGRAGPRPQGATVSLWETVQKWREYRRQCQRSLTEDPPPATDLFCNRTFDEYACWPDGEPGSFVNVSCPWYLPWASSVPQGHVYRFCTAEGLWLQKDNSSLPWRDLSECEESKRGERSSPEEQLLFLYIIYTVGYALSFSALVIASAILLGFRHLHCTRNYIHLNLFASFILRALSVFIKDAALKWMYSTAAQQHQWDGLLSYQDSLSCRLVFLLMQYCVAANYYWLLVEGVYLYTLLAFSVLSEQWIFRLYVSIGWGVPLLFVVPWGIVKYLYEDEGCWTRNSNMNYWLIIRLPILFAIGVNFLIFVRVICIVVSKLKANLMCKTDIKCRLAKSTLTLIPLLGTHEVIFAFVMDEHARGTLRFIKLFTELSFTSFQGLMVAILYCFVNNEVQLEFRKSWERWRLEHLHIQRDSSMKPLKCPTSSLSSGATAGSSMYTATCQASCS
# Test: qHTS of GLP-1 Receptor Inverse Agonists (Inhibition Mode); also: nearly all actives have a fitted effect of over 55% in size
# Details: HEK293 GLP-1R CRE-luciferase, luminescence, 24 h, GLP-1R form is constitutively active; activity change, negative = inhibition: at 38.3 µM (top of the series) unless noted
# Method in brief: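 HEK293 cells stably co-expressing constitutively active GLP-1R and a cAMP-responsive luciferase reporter were seeded in DMEM with 10% Nu serum, given compounds after 12 h, and incubated 24 h at 37 deg C. Luminescence was then read.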
# % is scaled to controls: 0 for no effect and ±100 for the full control effect; potency is read from the fitted curve at half-maximal effect; tags tell the direction and shape of the fitted curve.
Compound,Potency,"activity change, negative = inhibition"
O=[N+]([O-])c1ccc(COc2cccc(CNc3ccc(Br)cc3)c2)cc1,"inconclusive [inhibitor, partial curve, poor fit]",–
COc1ccccc1CNS(=O)(=O)CCNCCc1ccccc1,–,inactive: -0.184%
CC12CCC(=O)N1C(C(=O)Nc1nc(-c3ccc(F)cc3)cs1)CS2 (stereo not drawn),"inconclusive [inhibitor, partial curve, poor fit]",–
O=C(N/C(=C/c1cccc([N+](=O)[O-])c1)C(=O)N1CCCCCC1)c1ccco1,"inconclusive [inhibitor, single point]",–
CCOc1ccc(S(=O)(=O)N2CCC(C(=O)NCc3ccccc3CN3CCCC3)CC2)cc1,"inconclusive [inhibitor, single point]",–
Clc1ccc(-c2nc3cnccn3c2NC2CCCC2)cc1,"inconclusive [inhibitor, full curve, poor fit]",–
N=c1ccn(Cc2ccc(Cl)cc2)cc1,"inconclusive [inhibitor, partial curve, poor fit]",–
CN1CCN(C2=C(Cl)C(=O)N(c3ccc(Cl)c(Cl)c3)C2=O)CC1,"inconclusive [inhibitor, partial curve, poor fit]",–
COc1ccc(-c2cc(C(=O)N(C)CC(=O)Nc3cccc(F)c3)c3ccccc3n2)cc1,"inconclusive [inhibitor, partial curve, poor fit]",–
COc1ccc(NC(=S)N(CCc2c(C)[nH]c3ccc(C)cc23)Cc2cccs2)cc1,"inconclusive [inhibitor, partial curve, poor fit]",–
CCN(CC(=O)Nc1cc(Cl)ccc1C)C(=O)CC1CCCC1,"inconclusive [inhibitor, single point]",–
CN1CCCN(Cc2cccc3ccccc23)CC1,"inconclusive [inhibitor, partial curve, poor fit]",–
COc1ccc(COc2cccc(C=O)c2)cc1,"inconclusive [inhibitor, single point]",–
CCOC(=O)C1(C)CCCN1C(=O)c1snnc1C (stereo not drawn),–,inactive: 23%
Cc1ccccc1OC(=O)c1cccc(S(=O)(=O)N2CCN(C)CC2)c1,"inconclusive [inhibitor, partial curve]",–
COC(=O)c1c(-c2ccncc2)csc1NC(=O)c1ccoc1C,–,inactive: 95.1%
CCOC(=O)CN=C1CC(C)(C)CC2=C1Sc1ncnc(N(C)C)c1N2,–,inactive: 0%
COc1ccc(C2CC(c3ccc(C(F)(F)F)cc3)=NN2c2ccc(S(N)(=O)=O)cc2)cc1 (stereo not drawn),"inconclusive [inhibitor, partial curve, poor fit]",–
